Out of some 310,000 compounds screened, about 2,200 (0.71%) showed an effect of 50% or more. Effects have a minus sign here. The list shows a part of the results.
What follows are compounds tested against human ether-à-go-go-related gene (hERG) potassium channel (human, UniProt Q12809) (assay: primary screen, population patch clamp on CHO cells stably expressing hERG).
Chain of human ether-à-go-go-related gene (hERG) potassium channel (Q12809 whole entry, looked up): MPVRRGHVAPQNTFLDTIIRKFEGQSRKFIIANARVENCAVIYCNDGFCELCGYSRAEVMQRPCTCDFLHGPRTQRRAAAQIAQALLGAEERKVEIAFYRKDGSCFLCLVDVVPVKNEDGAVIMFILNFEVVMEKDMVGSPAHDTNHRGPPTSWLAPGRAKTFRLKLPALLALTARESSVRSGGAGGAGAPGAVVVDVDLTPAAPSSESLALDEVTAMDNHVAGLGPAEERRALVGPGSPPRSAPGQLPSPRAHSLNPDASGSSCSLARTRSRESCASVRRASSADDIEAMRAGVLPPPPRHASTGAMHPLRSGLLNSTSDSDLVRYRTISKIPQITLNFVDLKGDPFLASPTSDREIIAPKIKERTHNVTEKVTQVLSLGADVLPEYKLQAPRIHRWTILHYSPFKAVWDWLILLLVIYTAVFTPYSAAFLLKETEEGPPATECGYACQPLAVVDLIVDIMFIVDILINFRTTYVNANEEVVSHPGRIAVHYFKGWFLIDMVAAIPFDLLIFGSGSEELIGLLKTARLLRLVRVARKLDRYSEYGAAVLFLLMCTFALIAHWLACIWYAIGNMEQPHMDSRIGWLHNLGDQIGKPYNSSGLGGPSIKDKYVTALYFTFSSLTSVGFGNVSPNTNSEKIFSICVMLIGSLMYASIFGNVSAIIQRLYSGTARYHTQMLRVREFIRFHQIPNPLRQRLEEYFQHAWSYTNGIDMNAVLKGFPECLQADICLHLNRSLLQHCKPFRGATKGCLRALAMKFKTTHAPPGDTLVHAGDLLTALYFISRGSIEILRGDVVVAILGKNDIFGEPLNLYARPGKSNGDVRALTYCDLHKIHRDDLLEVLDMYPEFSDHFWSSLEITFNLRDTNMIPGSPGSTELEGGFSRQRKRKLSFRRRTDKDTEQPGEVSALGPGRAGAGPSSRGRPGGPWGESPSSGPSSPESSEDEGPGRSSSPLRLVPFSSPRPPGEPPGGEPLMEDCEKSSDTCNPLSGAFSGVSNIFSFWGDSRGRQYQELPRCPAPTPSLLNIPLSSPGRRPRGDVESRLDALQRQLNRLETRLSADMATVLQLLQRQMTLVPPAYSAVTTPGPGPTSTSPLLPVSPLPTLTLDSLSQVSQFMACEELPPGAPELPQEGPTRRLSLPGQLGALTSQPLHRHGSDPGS

Compound | hERG current change (%, negative = inhibition) at 1uM [%]
O=[N+]([O-])C(=C1Nc2ccccc2N1)/C(Cl)=C(/Cl)Br | 14.3
Cc1ccc(/C=N/NC(=O)NN(C)c2ncc(C(F)(F)F)cc2Cl)cc1 | 3.5
Cn1c(NC(=O)c2ccc(S(=O)(=O)N3CCCCC3)cc2)cc(=O)n(C)c1=O | 11.4
O=C(NNC(=O)c1ccc(Cl)c(Cl)c1)c1ccncc1 | 14.3
COc1cccc(NC(=O)Nc2ccc3c(c2)nc(C)n3C)c1 | -7.91
CNS(=O)(=O)c1cccc(C(=O)OCC(=O)Nc2ccc(N3CCCCC3)cc2)c1 | 9.03
Clc1ccc2c(c1)c1cc(Cl)ccc1n2CN1CCOCC1 | 0.387
C[C@@H](C(=O)OCC(=O)Nc1cc(S(=O)(=O)N2CCOCC2)ccc1Cl)N1C(=O)C2CCCCC2C1=O (some centres unmarked) | -7.57
CCN(CC)S(=O)(=O)c1ccc(C(=O)Oc2coc(CSc3nc(C)cc(C)n3)cc2=O)cc1 | 0.0562
N#Cc1nc(COc2ccccc2)oc1N1CCOCC1 | 1.61
c1ccc2c(N3CCOCC3)nc(-c3ccncc3)nc2c1 | -9
COc1cccc(C2N(c3ccc(Cl)cc3)C(=O)C3CCCN32)c1 (centres unmarked) | 9.95
C=CCNC(=O)c1c(N)n(-c2ccc3c(c2)OCO3)c2nc3ccccc3nc12 | 24.8
COC(=O)c1cnn(-c2ccccc2)c1/C=N/NC(=S)Nc1ccc(Cl)cc1 | 11.3
CCn1ncc(Br)c1C(=O)Nc1ccccc1C(F)(F)F | 7.62
CCOC(=O)c1cccc(NC(=O)CCNS(=O)(=O)c2cccc3nonc23)c1 | 4.27
CCN(Cc1ccccc1OC)CC1CCCN(CCc2cccc(OC)c2)C1 (centres unmarked) | 4.03
CCC(CC)c1nnc(NC(=O)c2nn(C)c(=O)c3ccccc23)s1 | 7.84
O=c1[nH]c2ccccc2nc1/C=C/c1ccc(F)cc1 | 6.51

Compound | hERG current change (%, negative = inhibition) at 1uM [%]
CCOC(=O)c1c(C)n(Cc2ccccc2)c2ccc(OCC(O)Cn3nc(C)nc3C)cc12 (centres unmarked) | 13.6
C(=N\Nc1nccc(-c2cccnc2)n1)/c1ccccc1 | 8.62
COC(=O)Nc1ccc2ncn(C)c(=O)c2c1 | 9.09
O=C(CN(c1ccccc1)S(=O)(=O)c1ccc(Cl)cc1)Nc1cccnc1 | -5.73
O=C(COc1ccc(C(=O)c2ccccc2)cc1)Nc1ncccc1O | 15.9
COc1ccccc1NCC(=O)Nc1cc(S(=O)(=O)N2CCOCC2)ccc1N1CCOCC1 | -12.4
COC(=O)CSc1nnc(NC(=O)c2ccc3c(c2)OCO3)s1 | -13.7
COc1ccccc1-c1cn[nH]c1-c1ccc(O)cc1O | 16.2
COc1ccc(NC(=O)CN2CCN(c3ccc(Cl)cc3)CC2)c(OC)c1 | 8.1
CCC1Oc2ccc(C)cc2N(CC(=O)NCCCN2CCN(Cc3ccccc3)CC2)C1=O (centres unmarked) | -8.06
NS(=O)(=O)c1ccc(NC(=S)NC(=O)c2ccc(-c3ccccc3)cc2)cc1 | 0.751
Cc1cc(S(=O)(=O)NCC2CCCO2)c(C)cc1Br (centres unmarked) | 13
COc1ccc([N+](=O)[O-])cc1NC(=O)Cn1ccc(C(F)(F)F)n1 | 21.8
CC(NC(=S)NCc1ccccc1)C12CC3CC(CC(C3)C1)C2 (centres unmarked) | 13.2
COc1ccc(C(=O)Oc2cccc3cccnc23)cc1S(=O)(=O)N1CCOCC1 | 10.4
O=C(c1ccc(O)cc1)c1ccc(C(=O)c2ccc(O)cc2)cc1 | 3.11
Cc1ccc(C)c(Cc2c(C)nc3c(C(=O)N4CCOCC4)cnn3c2C)c1 | -9.44
CC1=NOC(=O)/C1=C/c1ccc(N(C)C)cc1 | 4.93
Cc1cc(-c2nnc3n2N=C(C(C)(C)C)CS3)n[nH]1 | 13.7

Compound | hERG current change (%, negative = inhibition) at 1uM [%]
Cc1cc(C)c2c(c1)[C@@H]1C=CC[C@@H]1[C@H](c1ccc(S(=O)(=O)N3CCOCC3)cc1)N2 | 4.32
CCNC(=O)COc1cccc2ccccc12 | -5.49
O=C(N/N=C\c1ccc[nH]1)C1COc2ccccc2O1 (centres unmarked) | 6.88
CCOc1cc(C(C#N)N2CCCCC2)ccc1OC (centres unmarked) | -0.587
CC(C)N1CCc2c(sc(NC(=O)CCc3ccccc3)c2C(N)=O)C1.Cl | -1.98
CN(C(=O)c1ccccc1Cl)c1ccccc1 | 3.61
COc1ccccc1CC(=O)Nc1ccccc1C(=O)O | 14.1
CCN(C(=O)COC(=O)CNC(=O)c1ccc2ccccc2c1)C1CCS(=O)(=O)C1 (centres unmarked) | 4.72
CC(=O)Nc1ccc(N/C=C/C(=O)c2ccccc2)cc1 | 11.9
CCN(c1ccccc1)S(=O)(=O)c1ccc2c(c1)N(C(C)=O)CCS2 | 3.38
CC1CCCCC1NC(=O)c1cn(C)c2ccc(S(=O)(=O)N3CCOCC3)cc2c1=O (centres unmarked) | 6.11
Cc1ccc(C)c(NC(=O)CS(=O)(=O)c2cccc3nsnc23)c1 | 3.88
CCOC(=O)N1CCN(CC(=O)Nc2ccc(F)c(F)c2F)CC1 | 15.5
CCOC(=O)N1CCN(c2c(NCCCN(CC)CC)c(=O)c2=O)CC1 | 9.34
COc1ccc(C(OCC(O)CNC(C)c2ccccc2)c2ccc(OC)cc2)cc1 (centres unmarked) | -7.6
O=C(O)Cn1c(CCS(=O)(=O)c2ccc(Br)cc2)nc2ccccc21 | 10.1
CC(C)(C)c1ccc(C(=O)c2cn[nH]c2-c2ccccc2O)cc1 | 7.86
Cn1c(O)c(C=Nc2ccc(F)cc2)c(=O)[nH]c1=O | 13.5

Source: publication PMC4336329 (PLoS ONE, 2015)
